{"source": "PubChem BioAssay AID686978", "about": "(National Center for Advancing Translational Sciences (NCATS), 2013)", "note": "“And” between values parts separate entries of the source, which are not always exact repeats. Identical values can stand only once. The campaign covered roughly 420,000 compounds. About 64,000 (15%) were called active. The shares of active, inactive and inconclusive entries below differ from those in the screen. Calls come from the whole dose curve; as a rule, active = well fitted inhibition curve with a large enough effect; inconclusive = small, poorly fitted or top-dose-only effect; inactive = flat fitted curve, though single readings scatter. Potencies of inconclusive entries are left out as doubtful fits. Some structures have more than one record in an assay (separate samples or runs), and their calls can disagree. % is set by controls: 0 for no effect and ±100 for the full control effect; potency is the fitted concentration of half-maximal effect; tags give direction and shape of the fitted curve."}
{"assay": "qHTS for Inhibitors of human tyrosyl-DNA phosphodiesterase 1 (TDP1): qHTS in cells in absence of CPT; note: nearly all actives have a fitted effect of over 55% in size", "conditions": "DT40 Tdp1-/- hTDP1 cells, no CPT, ATP luminescence, 48 h; activity change, negative = growth inhibition: at 46.2 µM (top of the series) unless noted", "in_short": "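Seeded 400 DT40-hTDP1 cells/well (vehicle DMSO, no 20 nM CPT); pinned compounds; ≥48 hr at 37 °C; CellTiter-Glo luminescence as viability measure.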"}
{"compound": "O[C@H]1CCCC[C@H]1N1CCC(c2ccccc2)CC1", "Potency": "inactive"}
{"compound": "COC(=O)C1=C(c2ccc(OC)c(OC)c2)C[C@@H]2CC[C@H]1N2C(=O)N1CCCCC1", "Potency": "active: 9.2 µM"}
{"compound": "O=C1NC(=O)N(c2cccc(Br)c2)C(=O)/C1=C/c1ccsc1", "Potency": "inconclusive [inhibitor, single point]"}
{"compound": "N#CC(C#N)=NNc1ccc([N+](=O)[O-])cc1", "Potency": "active: 23.1 µM"}
{"compound": "CC[C@H]1c2ccccc2[C@@H]2CC[C@H]1N2c1ccccc1", "Potency": "inactive"}
{"compound": "CCOc1ccc(-c2c(C)n(-c3ccc(OCC)cc3)c3[n+]2CCCCC3)cc1", "Potency": "active: 0.164 µM"}
{"compound": "COc1cccc(NC(=O)CSC2=Nc3ccccc3C3=NC(CCC(=O)NCCc4ccccc4)C(=O)N23)c1", "note": "(stereo unspecified)", "Potency": "active: 20.6 µM"}
{"compound": "CCC(=NCCC(c1ccccc1)c1ccccc1)c1c(O)[nH]c(=O)[nH]c1=O", "Potency": "inconclusive [inhibitor, single point]"}
{"compound": "CCP(=S)(CC)c1ccc(N(C)C)cc1", "Potency": "inconclusive [inhibitor, single point]"}
{"compound": "Cc1ccc(NC(=O)c2ccc(C)c(S(=O)(=O)N3CCCCC3)c2)nc1", "Potency": "inconclusive [inhibitor, single point]"}
{"compound": "CC(C)c1ccc(NC(=O)c2ccc3c(c2)CCN3S(=O)(=O)c2ccccc2)cc1", "Potency": "active: 5.8 µM"}
{"compound": "CCSc1cc(C2C(C#N)=C(N)Oc3n[nH]c(C)c32)c(C)o1", "note": "(stereo unspecified)", "Potency": "active: 16.4 µM"}
{"compound": "CCN1CCN(C(c2cccs2)C(C)NC(=O)Oc2ccccc2)CC1", "note": "(stereo unspecified)", "Potency": "inactive"}
{"compound": "ClCCN1CCSCC1", "Potency": "inconclusive [inhibitor, partial curve]"}
{"compound": "CCCCC/C=C\\C/C=C\\C/C=C\\C/C=C\\CCCC(=O)O", "Potency": "active: 11.6 µM and active: 23.7 µM", "activity change, negative = growth inhibition": "inactive: 2.35% [at 4.12 µM]"}
{"compound": "O=C(C(=O)N1CCC2(CC1)OCCO2)c1c[nH]c2ccccc12", "Potency": "inactive"}
{"compound": "CC(=O)[O][Hg][c]1ccccc1", "Potency": "active: 0.164 µM"}
{"compound": "COc1ccc(C2NCc3ccc4c(c3-n3cccc32)OCO4)cc1OC", "note": "(stereo unspecified)", "Potency": "inconclusive [inhibitor, single point]"}
{"compound": "O=C(c1ccc(N2CCCCC2)c([N+](=O)[O-])c1)N1CCC2(CC1)OCCO2", "Potency": "inconclusive [inhibitor, single point]"}
{"compound": "COC(=O)C1=C(c2ccc(OCc3ccccc3)cc2)C[C@@H]2CC[C@H]1N2C(=O)NCc1ccc2c(c1)OCO2", "Potency": "active: 4.11 µM"}
{"compound": "O=C(Cc1c(-c2ccccc2)nc2ccc(Br)cn12)N1CCCC1", "Potency": "inconclusive [inhibitor, single point]"}
{"compound": "CN(C)CC1CSCCC1(O)c1ccc(Cl)cc1", "note": "(stereo unspecified)", "Potency": "inconclusive [inhibitor, single point]"}
{"compound": "CC(=O)O[C@H]1C[C@H](O[C@H]2[C@@H](O)C[C@H](O[C@H]3[C@@H](O)C[C@H](OC4CC[C@@]5(C)C(CC[C@@H]6[C@@H]5CC[C@]5(C)[C@@H](C7=CC(=O)OC7)[C@@H](O)C[C@]65O)C4)O[C@@H]3C)O[C@@H]2C)O[C@H](C)[C@H]1O[C@@H]1O[C@H](CO)[C@@H](O)[C@H](O)[C@H]1O", "note": "(stereo partly specified)", "Potency": "active: 2.37 µM"}
{"compound": "CC(=O)Oc1ccc2c3c1O[C@H]1[C@@H](OC(C)=O)C=C[C@H]4[C@@H](C2)N(C)CC[C@@]341", "Potency": "inconclusive [inhibitor, single point]"}
{"compound": "Cc1ccc(-n2c(/C=C/c3ccc(Br)s3)nc3ccccc3c2=O)cc1C", "Potency": "inconclusive [inhibitor, single point]"}
{"compound": "ClC1=C(Cl)C2(Cl)C(CBr)CC1(Cl)C2(Cl)Cl", "note": "(stereo unspecified)", "Potency": "inactive"}
{"compound": "CCOC(=O)[C@]12Cc3cc(C)ccc3[C@H]1N(C(C)C)C(=O)c1ccccc12", "Potency": "active: 6.51 µM"}
{"compound": "CC(NC1CCCCC1)C(O)C12CC3CC(CC(C3)C1)C2", "note": "(stereo unspecified)", "Potency": "active: 16.4 µM"}
{"compound": "CCC1=Nc2cc(C(=O)N3CCC4(CC3)OCCO4)ccc2Sc2ccccc21", "Potency": "inconclusive [inhibitor, partial curve, poor fit]"}
{"compound": "Cc1ccc(-c2nn(C)c(=O)c3ccccc23)cc1CNC(=O)/C=C/c1ccccc1", "Potency": "inconclusive [inhibitor, single point]"}
{"compound": "CC1CNCCN1c1ccc(Cl)cc1", "note": "(stereo unspecified)", "Potency": "inactive"}
{"compound": "Cc1ccc(C(=O)Nc2ccc(S(=O)(=O)N3CCC(c4nc5ccccc5s4)CC3)cc2)cc1", "Potency": "inconclusive [inhibitor, single point]"}
{"compound": "CCCCc1ccc(NC2=NCCCS2)cc1", "Potency": "inconclusive [inhibitor, single point]"}
{"compound": "COC(=O)C1=C(c2cccc(OCc3ccccc3)c2)C[C@@H]2CC[C@H]1N2C(=O)NCc1ccccc1C(F)(F)F", "Potency": "active: 23.1 µM"}
{"compound": "CCC(C)N1C(=O)/C(=C\\c2cc3c4c(c2)CCCN4CCC3)C(=O)NC1=S", "note": "(stereo unspecified)", "Potency": "inconclusive [inhibitor, single point]"}
{"compound": "Cc1cc2c(C(C)C)c(O)c(O)c(C=O)c2c(O)c1-c1c(C)cc2c(C(C)C)c(O)c(O)c(C=O)c2c1O", "Potency": "active: 562 nM and active: 7.5 µM and active: 5.8 µM"}
{"compound": "Brc1ccc2c(c1)C(OC1CN3CCC1CC3)c1ccccc1CS2", "note": "(stereo unspecified)", "Potency": "active: 5.17 µM"}
{"compound": "CN1CCN(C(=O)COc2ccc(C(C)(C)C)cc2Br)CC1", "Potency": "inconclusive [inhibitor, single point]"}
{"compound": "NCC[C@H](O)C(=O)N[C@@H]1C[C@H](N)[C@@H](O[C@H]2O[C@H](CN)[C@@H](O)[C@H](O)[C@H]2N)[C@H](O[C@@H]2O[C@H](CO)[C@@H](O)[C@H]2O)[C@H]1O", "Potency": "inactive"}
{"compound": "O=C(CCn1nc(-c2ccc(Cl)cc2)ccc1=O)N1CCC2(CC1)OCCO2", "Potency": "inactive"}
{"compound": "CC(=O)O[C@H]1CC[C@@]2(C)C(=CC[C@H]3[C@@H]4CC[C@H](C(C)=O)[C@@]4(C)CC[C@@H]32)C1", "Potency": "inactive and active: 16.4 µM"}
{"compound": "CCN(CC)S(=O)(=O)c1ccc(C(=O)NC(=S)N2CCN(c3ccccc3O)CC2)cc1", "Potency": "active: 18.4 µM"}
{"compound": "Cc1cccc(C2=NN(c3ccc(Br)cc3)[C@@H](C(=O)N3CCOC3=O)[C@@H]2c2ccc([N+](=O)[O-])cc2)c1", "Potency": "inconclusive [inhibitor, single point]"}
{"compound": "CCCCCCn1c(O)c(C=Nc2ccccc2N2CCOCC2)c(=O)[nH]c1=S", "Potency": "active: 14.6 µM"}
{"compound": "C=CCn1c(O)c(C(C)=NCCN2CCOCC2)c(=O)[nH]c1=O", "Potency": "inactive"}
{"compound": "CCOP(=O)(OCC)C(O)c1ccc(N(C)C)cc1", "note": "(stereo unspecified)", "Potency": "inactive"}
{"compound": "O=C(c1ccc(F)cc1)N1CCC2(CC1)OCCO2", "Potency": "inactive"}
{"compound": "Cc1ccc(CN2Cc3ccc(Br)cc3-n3nncc3C2)cc1", "Potency": "inconclusive [inhibitor, single point]"}
{"compound": "CN1C2c3ccccc3C3C4c5ccccc5C(C31)C(C2[N+](=O)[O-])N4C", "note": "(stereo unspecified)", "Potency": "inconclusive [inhibitor, partial curve, poor fit]"}
{"compound": "CCn1c(C(=O)N2CCC(C(=O)N3CCC4(CC3)OCCO4)CC2)cc2sccc21", "Potency": "inactive"}
{"compound": "C[C@@H]1COc2cccc(N3CCN(C)CC3)c2S(=O)(=O)N1", "Potency": "inactive"}
{"compound": "COC(=O)[C@]1(C)C[C@H]1[C@H](NP(=O)(c1ccccc1)c1ccccc1)c1ccccc1", "Potency": "inconclusive [inhibitor, single point]"}
{"compound": "c1ccc2c(c1)CSc1ccccc1N2", "Potency": "inconclusive [inhibitor, single point]"}
{"compound": "O=[N+]([O-])c1ccc(S(=O)(=O)NCC(c2ccco2)N2CCc3ccccc3C2)cc1", "note": "(stereo unspecified)", "Potency": "inconclusive [inhibitor, single point]"}
{"compound": "O=C(c1cccc(Cl)c1)C1CCCN(Cc2ccon2)C1", "note": "(stereo unspecified)", "Potency": "inconclusive [inhibitor, single point]"}
{"compound": "COc1ccccc1-n1c(O)c(/C=N/NC(=S)Nc2ccccc2)c(=O)[nH]c1=S", "Potency": "inconclusive [inhibitor, single point]"}
{"compound": "CC(C)CN1Cc2cc(-c3ccccc3)ccc2-n2nncc2C1", "Potency": "inconclusive [inhibitor, single point]"}
{"compound": "O=C(/C=C/c1ccccc1)C1C(=O)c2ccccc2C1=O", "Potency": "active: 4.61 µM"}
{"compound": "CS(=O)(=O)OCC(O)C(O)COS(C)(=O)=O", "note": "(stereo unspecified)", "Potency": "active: 10.6 µM"}
{"compound": "CCCn1c(C(=O)c2ccc(OC)cc2)nc2ccccc21", "Potency": "inconclusive [inhibitor, single point]"}
{"compound": "CS(=O)(=O)c1ccc(C2=C(CNC(=O)c3nccs3)[C@H]3CC[C@@H](C2)N3CCOc2ccccc2)cc1", "Potency": "inconclusive [inhibitor, single point]"}
{"compound": "NC(C(=O)O)c1cc(=O)[nH]o1", "note": "(stereo unspecified)", "Potency": "inactive"}
{"compound": "NC(=O)c1ccsc1NC(=O)COC(=O)Cc1ccccc1", "Potency": "inconclusive [inhibitor, single point]"}
{"compound": "CC(CN(C)C1CCN(C)CC1)c1ccccc1", "note": "(stereo unspecified)", "Potency": "inactive"}
{"compound": "CCC1(C)CC(C(N)=S)CCO1", "note": "(stereo unspecified)", "Potency": "active: 20.6 µM"}
{"compound": "CC(C)c1ccc(N2C(=O)NC(=O)/C(=C/C=C/c3ccco3)C2=O)cc1", "Potency": "active: 4.61 µM"}
{"compound": "COC(=O)c1cn(CCOc2ccccc2)c2ccccc12", "Potency": "inconclusive [inhibitor, single point]"}
{"compound": "Cc1ccccc1NC1=NCC(C)S1", "note": "(stereo unspecified)", "Potency": "inactive"}
{"compound": "COC(=O)CC1=C(C(=O)OC)C2(C(=O)Nc3c(C)cccc32)C(C#N)=C(N)O1", "note": "(stereo unspecified)", "Potency": "inconclusive [inhibitor, single point]"}
{"compound": "COC(=O)c1cccc(NC(=O)c2ccc(S(=O)(=O)N(C)c3ccccc3OC)cc2)c1", "Potency": "active: 11.6 µM"}
